Among all 420,000 compounds or so, about 64,000 (15%) were called active. The inconclusive results got no clear call from the source; some entries with a clear call stand among them for comparison. The call rests on the fitted dose curve; in most records, active means well fitted inhibition curve with a large enough effect; inconclusive means small, poorly fitted or top-dose-only effect; inactive means flat fitted curve, though single readings scatter. Potencies of inconclusive entries are left out as doubtful fits.
Test: qHTS for Inhibitors of human tyrosyl-DNA phosphodiesterase 1 (TDP1): qHTS in cells in absence of CPT; further: nearly all actives have a fitted effect of over 55% in size
Conditions: DT40 Tdp1-/- hTDP1 cells, no CPT, ATP luminescence, 48 h; activity change, negative = growth inhibition: at 46.2 µM (top of the series)
Procedure, shortened: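 DT40 Tdp1-/-;hTDP1 cells, no CPT (DMSO vehicle only), 400 cells/well; compounds pin-transferred; ≥48 hr, 37 °C; CellTiter-Glo 30 min RT dark, luminescence read.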
On the % scale 0 is the no-effect control and ±100 the full control effect; potency means the concentration at half of the fitted maximal effect; tags describe the fitted curve by direction and shape.

Compound	Potency	activity change, negative = growth inhibition
Cc1ccc(S(=O)(=O)N(C)C)cc1NC(=O)C1CCCN(C(=O)c2ccc(Cl)cc2)C1 (centres undefined)	inconclusive [inhibitor, single point]	–
COc1cccc(C(=O)O/N=C(\N)c2ccncc2)c1	–	inactive: 2.21%
S=C(Nc1ccc(N2CCOCC2)cc1)Nc1ccc2snnc2c1	inconclusive [inhibitor, single point]	–
Cc1cccc(OCC(=O)O/N=C(\N)Cc2ccc([N+](=O)[O-])cc2)c1	–	inactive: -4.29%
Cc1ccc(S(=O)(=O)Cc2nc3ccccc3c(=O)[nH]2)cc1	–	inconclusive: -38.8% [inhibitor]
COc1ccc(CNS(=O)(=O)NCc2ccc(OC)c(OC)c2)cc1	inconclusive [inhibitor, partial curve]	–
Cc1cc(C(=O)CN2C(=O)C(=O)N(Cc3ccccc3)C2=O)c(C)n1-c1ccccc1F	–	inconclusive: -33.5% [inhibitor]
CCc1cccc(NC(=O)CCS(=O)(=O)c2ccc(Br)cc2)c1	active: 29.1 µM	–
COc1ccc(CNC(=O)c2cc3c(=O)n(Cc4ccco4)ccc3nc2C)cc1	–	inactive: -17.3%
C/C(CC(=O)Nc1cccc(Cl)c1Cl)=N\NC(=O)c1ccccc1C	–	inactive: -1.38%
CN(CCOc1ccccc1)C(=O)c1cc(S(=O)(=O)N2CCOCC2)c(Cl)cc1Cl	inconclusive [inhibitor, single point]	–
CCOc1ccc(C(=O)Nc2cccc(-c3nc4cccnc4o3)c2)cc1Cl	inconclusive [inhibitor, single point]	–
CCOc1ccc(NC(=O)CSc2ccc(-c3ccco3)nn2)cc1	inconclusive [inhibitor, single point]	–
CC(C)N(Cc1ccccc1)C(=O)c1cccs1	–	inconclusive: -31.2% [inhibitor]
c1ccc(Sc2ncnc3c2oc2ccccc23)nc1	–	inconclusive: -31.1% [inhibitor]
COc1ccccc1CNC(=O)c1cccnc1	–	inactive: -7.24%
CCCCN(C)C(=S)Nc1ccc(Oc2ccccc2)cc1	inconclusive [inhibitor, single point]	–
CC(NC(=S)NC(=O)c1ccccc1)c1ccccc1 (centres undefined)	–	inactive: -24.2%
CN1CCC(OC(c2ccccc2)c2ccccc2)CC1	inactive	–
COc1cccc(C2NC(=O)c3sc(=S)n(-c4ccccc4)c3N2)c1 (centres undefined)	inconclusive [inhibitor, partial curve]	–
O=C(CSCn1nnc2c(=O)[nH]c(Cc3ccc(F)cc3)nc21)Nc1cccc(C(F)(F)F)c1	inconclusive [inhibitor, single point]	–
Cc1ccc2c3c([nH]c2c1)C(=O)CC(C)(C)S3	–	inconclusive: -30.8% [inhibitor]
COc1ccc(CCNC(=O)Cn2c(=O)n(Cc3ccco3)c(=O)c3ccc(Cl)cc32)cc1OC	active: 23.1 µM	–
Cc1ccc(C2=NOC(=O)/C2=C\c2ccccc2)cc1	inconclusive [inhibitor, single point]	–
CC(=O)Nc1ccc(NC(=O)CCCn2nc(C)c3sc4ccccc4c3c2=O)cc1	inconclusive [inhibitor, single point]	–

Compound	Potency	activity change, negative = growth inhibition
CCc1ccc(CN2CCC(n3nccc3NC(=O)c3ccccc3C)CC2)cc1	inconclusive [inhibitor, single point]	–
CCc1ccc(OCC(=O)Nc2ccc(S(=O)(=O)N3CCOCC3)cc2)cc1	–	inactive: -2.73%
CC1CC(NS(=O)(=O)c2cc3c4c(c2)CCN4C(=O)CC3)CC(C)(C)C1 (centres undefined)	inconclusive [inhibitor, single point]	–
CCn1c(COc2ccc(Cl)cc2)nnc1SCc1nc2ccccc2[nH]1	inconclusive [inhibitor, partial curve]	–
COc1cccc(Cn2c(=O)c(CCc3ccccc3)nc3cnc(N4CCOCC4)nc32)c1	–	inactive: -14.7%
Cc1ccc(NC(=O)c2sc3ncn(CC(=O)N4CCN(c5ccccn5)CC4)c(=O)c3c2C)cc1	inconclusive [inhibitor, single point]	–
CCn1cc(C(=O)N2CCN(c3ccc(C)cc3)C(C)C2)c(=O)c2cc(S(=O)(=O)N3CCCC3)ccc21 (centres undefined)	inconclusive [inhibitor, single point]	–
O=[N+]([O-])c1c(C(Cl)Cl)nn(-c2ccc(Cl)cc2)c1N1CCCCC1	active: 16.4 µM	–
COCCCn1c(SCC(=O)Nc2ccc(C(C)=O)cc2)nc2ccccc2c1=O	active: 20.6 µM	–
COc1ccccc1-c1nnc(SCC(=O)N2CCCC2)o1	–	inactive: -3.49%
CCOC(=O)/C=c1/s/c(=C/c2ccc3cc(OC)ccc3c2)c(=O)n1CC(=O)NCC1CCCO1 (centres undefined)	active: 10.3 µM	–
CCc1ccccc1NC(=O)C(=O)NCCCN1CCOCC1	–	inactive: 1.3%
O=C(N/N=C\c1cc(Br)ccc1O)c1ccc(S(=O)(=O)N2CCCCC2)cc1	active: 2.91 µM	–
CC1(CCC(=O)N2CCCC(N3CCN(c4ccc(F)cc4)CC3)C2)CC1 (centres undefined)	inconclusive [inhibitor, single point]	–
COc1ccc(C(=O)NCc2nnc(SCC(=O)Nc3cc(OC)ccc3OC)o2)cc1	–	inactive: 30.8%
O=C(NCCN1CCCCCC1)C1CCN(S(=O)(=O)N2CCOCC2)CC1	–	inactive: 2.76%
CCOC(=O)C1=CCN(S(=O)(=O)c2ccccc2Br)C1c1cccc(F)c1 (centres undefined)	inconclusive [inhibitor, single point]	–
CN(C)S(=O)(=O)c1cccc(COc2cccnc2[N+](=O)[O-])c1	inconclusive [inhibitor, single point]	–
N#Cc1ccccc1NC(=O)CNc1ccc(Cl)c(C(F)(F)F)c1	inconclusive [inhibitor, single point]	–
Cc1nc2c(C)cccc2c2c1CCN2c1ccccc1F	active: 20.6 µM	–
N=C(N)SCP(=O)(c1ccccc1)c1ccccc1	active: 18.4 µM	–
Cc1nc2ccc(S(=O)(=O)N(CC(=O)Nc3ccc(F)cc3F)Cc3ccccc3)cc2s1	inconclusive [inhibitor, single point]	–
CCn1c(SCC(=O)N2CCCCC2C)nc2ccsc2c1=O (centres undefined)	–	inconclusive: -52.9% [inhibitor]
Cn1c(SCc2ccccc2C#N)nnc1-c1ccncc1	–	inactive: -5.8%
CCOc1cc(C(=O)NCCc2sc(-c3ccc(F)cc3)nc2C)cc(OCC)c1OCC	inconclusive [inhibitor, single point]	–

Compound	Potency	activity change, negative = growth inhibition
C(=C\c1nc(-c2ccncc2)no1)/c1ccccc1	active: 16.4 µM	–
CCOC(=O)[C@H]1[C@H]2COc3ccccc3[C@@H]2N2C(=O)c3cc(Cl)ccc3NC(=O)[C@@]12C	inconclusive [inhibitor, single point]	–
C=CCNC(=S)NNC(=O)c1cccn(Cc2ccc(Cl)cc2Cl)c1=O	inconclusive [inhibitor, single point]	–
O=C(NC(c1ccc2c(c1)OCO2)c1ccccn1)C1CCN(CCOc2ccc(Cl)cc2Cl)CC1 (centres undefined)	inconclusive [inhibitor, single point]	–
O=C(Cn1c(=O)c2cccn2c2cccnc21)NCc1cccc(F)c1	–	inactive: -29.4%
CC(C)=CCOc1c2ccoc2cc2oc(=O)ccc12	–	inactive: -13.6%
Cc1ccc(S(=O)(=O)Nc2cccc(-c3cn4cccc(C)c4n3)c2)c(C)c1	inconclusive [inhibitor, single point]	–
CC(C)CC(=O)N1CCC(O)(CS(=O)(=O)c2ccc(Cl)c(Cl)c2)CC1	–	inactive: -4.27%
O=C(N/N=C\c1ccc2c(c1)OCO2)c1cncc(Br)c1	–	inactive: -7.71%
CCOc1ccc(NC(=O)c2ccc3[nH]c(C)c(C)c3c2)cc1	inconclusive [inhibitor, single point]	–
N#C/C(=C\c1ccccc1)c1nc2ncccc2[nH]1	inconclusive [inhibitor, single point]	–
COc1ccc(-c2cc(=O)oc3cc(OC(C)C(=O)NC4CC4)ccc23)cc1 (centres undefined)	–	inconclusive: -30.6% [inhibitor]
O=C(Cn1ccc2cc(S(=O)(=O)N3CCCCC3)ccc21)NCCc1ccccc1Cl	inconclusive [inhibitor, single point]	–
CCC(C)(C)NC(=O)c1sccc1Oc1ccc(F)cc1[N+](=O)[O-]	inconclusive [inhibitor, single point]	–
COc1cccc(/C=C/C(=O)OCC(=O)c2ccc(S(=O)(=O)N3CCCCC3)cc2)c1OC	inconclusive [inhibitor, single point]	–
CCn1c(N2CCN(C(=S)NC)CC2)nc2ccccc21	–	inactive: 1.27%
O=C(CSc1nnc(NC(=O)c2cccc(F)c2)s1)NCc1ccco1	–	inactive: 12%
O=C1CCCC2=C1C(c1ccccc1)n1c(s/c(=C/c3cccc(F)c3)c1=O)=N2 (centres undefined)	inconclusive [inhibitor, single point]	–
COc1ccc(NC(=O)CCCC2CCCCC2)cc1S(=O)(=O)N1CCCCC1	inconclusive [inhibitor, partial curve]	–
CN(C)C(=O)Oc1cccc([N+](C)(C)C)c1	inactive	–
OCC[C@H]1C[C@H](O)[C@@H](O)[C@]2(OCCc3ccccc32)O1	–	inactive: -16.6%
CCc1ccc(NC(=O)CSC2=Nc3ccccc3C3=NC(CCC(=O)NCc4ccccc4)C(=O)N23)cc1 (centres undefined)	active: 23.1 µM	–
Cc1ccccc1NC(=O)Cn1cc(C(=O)c2cccs2)c2ccccc21	inconclusive [inhibitor, single point]	–
COC(=O)c1cc(NC(=O)C2(S(=O)(=O)c3ccc(Cl)cc3)CC2)cc(C(=O)OC)c1	inconclusive [inhibitor, single point]	–

Source: PubChem BioAssay AID686978 (National Center for Advancing Translational Sciences (NCATS), 2013)
